Measurements reported in US20230120736A1, “ANTI-CD98 ANTIBODIES AND ANTIBODY DRUG CONJUGATES” (AbbVie Inc., priority 2016, published 2023).

B1: Ab14-CZ (conjugate)
VH: EVKLQQSGDELVRPGASVKISCKASGYTFTSYSMHWVKERPGQGLEWIGAIFPIIGTTEYNQKFKGKATLTADKSSNTANMELSRLTSEDSAVYYCARVYLSYFDYWGQGVMVTVSS
VL: DIQMTQSPSFLSASVGDRVTINCKASQNINKYLDWYQRKHGEAPKLLIYNTNNLQTGIPSRFSGSGSGTDYTLTISSLQPEDVATYFCLQHSSRYTFGAGTKLELK
B2: Ab10-CZ (conjugate)
VH: EVQLVESGGGLVQPGRSLKLSCAASGFTFSDYAMAWVRQAPKKSLEWVATIIYDGRGTYCRDSVKGRFTISRDNAKSTLYLQMDSLRSEDTATYYCARQGDGTYHYWGYFDYWGQGVMVTVSS
VL: DIVMTQSPSSLAVSAGETVTINCKSSQSLLSSGNQKNYLAWYQQKPGQSPKLLIYWASTRQSGVPDRFIGSGSGTDFTLTISSVQAEDLAIYYCQQYYDTPYTFGAGTKVDLK
B3: Ab15-CZ (conjugate)
VH: EVQLVESGGGLVQPGRSLKLSCAASGFTFSDYTMAWVRQAPKKGLEWVATIIYDGRGTYYRDSVKGRFTISRDNAKSTLYLQMDSLRSEDTATYYCARQSDGTYYYWGYFDYWGQGVMVTVSS
VL: DIVMTQSPSSLAVSAGETVTINCKSSQSLLFSGNQKNYLAWYQQKPGQSPKLLIYWASTRQSGVPDRFIGSGSGTDFTLTIRSVQAEDLAIYYCQQYYDSPYTFGAGTKLELK
B4: Ab12-CZ (conjugate)
VH: EVQLVESGGGLVQPGRSLKLSCAASGFTFSDYAMAWVRQAPKKGLEWVASIIYDGRGTYYRDSVKGRFTISRDNAKSTLYLQMDSLRSEDTATYYCARQGDGTYYYWGSFDYWGQGVMVTVSS
VL: DIVMTQSPSSLAVSAGETVTINCKSSQSLLSSGNQKNYLAWYQQKPGQSPKLLIYWASTRQSGVPDRFIGSGSGTDFTLTISSVQAEDLAIYHCQQYYDTPYTFGAGTKLELK
B5: Ab11-CZ (conjugate)
VH: EVQLVESGGGLVQPGRSLKLSCAASGFTFSDYAMAWVRQAPKKGLEWVAGIIYDGRGTYYRDSVKGRFTISRDNAKSTLYLQMDSLRSEDTATYYCARQGDGTYYYWGYFDYWGQGVMVTVSS
VL: DIVMTQSPSSLAVSAGETVTINCRSSQSLLSSGNQKNYLAWYQQKPGQSPKLLIYWASTRQSGVPDRFIGSGSGTDFTLTISSVQAEDLAIYYCQQYYDTPYTFGAGTKLELK
B6: Ab13-CZ (conjugate)
VH: QVQLKESGPGLVQPSQTLSLTCTVSGFSLSSYGVIWVRQPPGKGLEWMGIIWANGNTNYNSALKSRLSISRDTSKSQVYLKMNSLQTEDTATYYCARHYYDGTHYYGYFDYWGQGVMVTVSS
VL: DTVMTQTPSSQAVSAGEKVTMSCKSSQSLLYSENKKKYLAWYQQKPGQSPKLLIYWASTRESGVPDRFIGSGSGTDFTLTISSVQAEDLAVYYCQQYYNFPYTFGAGTKLELK

System: Molt-4 human acute lymphoblastic leukemia cell line
Assay: Growth inhibition assay (CellTiter-Glo)
Type: cell-based
Conditions: 2-days treatment, 3000 cells per well, read-out: ADC potency, IC50, Molt-4

Point of comparison: B6, IC50 0.38 nM. Against it:
- B1 — 15-fold lower, 0.025 nM
- B2 — 8.1-fold lower, 0.047 nM
- B3 — 5.4-fold lower, 0.071 nM
- B4 — 4.4-fold lower, 0.087 nM
- B5 — within 1.5-fold, 0.279 nM
